The full ranking holds about 33,000 sequences; the median of “E-score (-0.5 to 0.5)” is about -0.035, and the highest 2% start at about 0.35. This is one part of the list.
Target: T1, Pdr3 (UniProt P33200)
T1 sequence: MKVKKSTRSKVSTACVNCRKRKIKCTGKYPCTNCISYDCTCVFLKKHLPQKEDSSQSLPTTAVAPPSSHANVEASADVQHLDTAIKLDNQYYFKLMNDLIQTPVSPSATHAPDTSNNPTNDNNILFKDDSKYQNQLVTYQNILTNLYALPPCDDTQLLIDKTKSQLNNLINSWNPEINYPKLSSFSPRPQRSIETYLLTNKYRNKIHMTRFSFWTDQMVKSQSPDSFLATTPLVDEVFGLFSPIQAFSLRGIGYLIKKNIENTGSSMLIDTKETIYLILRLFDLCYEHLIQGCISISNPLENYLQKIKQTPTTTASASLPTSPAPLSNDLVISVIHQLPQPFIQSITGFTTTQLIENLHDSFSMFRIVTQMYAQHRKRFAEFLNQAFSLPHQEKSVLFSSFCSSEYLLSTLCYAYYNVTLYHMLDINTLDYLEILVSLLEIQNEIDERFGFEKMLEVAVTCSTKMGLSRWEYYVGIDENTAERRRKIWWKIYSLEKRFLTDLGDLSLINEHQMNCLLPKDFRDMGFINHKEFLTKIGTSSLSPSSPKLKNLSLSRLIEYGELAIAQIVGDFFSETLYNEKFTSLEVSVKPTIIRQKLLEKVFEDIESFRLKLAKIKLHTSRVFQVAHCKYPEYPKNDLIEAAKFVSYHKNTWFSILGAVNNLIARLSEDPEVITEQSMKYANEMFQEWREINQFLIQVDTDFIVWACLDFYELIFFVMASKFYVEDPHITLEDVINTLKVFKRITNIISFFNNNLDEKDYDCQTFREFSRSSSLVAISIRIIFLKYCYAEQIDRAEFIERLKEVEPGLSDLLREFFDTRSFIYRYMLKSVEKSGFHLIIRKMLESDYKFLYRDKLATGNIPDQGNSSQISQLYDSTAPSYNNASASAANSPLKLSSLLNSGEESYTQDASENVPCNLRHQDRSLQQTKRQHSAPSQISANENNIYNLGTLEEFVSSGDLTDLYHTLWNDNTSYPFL
Test: PBM E-score (8-mer binding enrichment) (E-score (-0.5 to 0.5)); higher = stronger / more preferred TF binding; most listed sequences are background and not binding sites
Details: protein concentration: 200 nM; construct: GST-full length
Description: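 Universal 'all 10-mer' protein binding microarrays (Agilent AMADID 015681) probed with GST-tagged S. cerevisiae TFs (full-length or DBD) made by in vitro transcription/translation (PURExpress), about 100-200 nM. Bound TF was detected with fluorescent anti-GST. Each ungapped 8-mer (which stands for itself and its reverse complement) is scored by the PBM enrichment score (E-score), a modified Wilcoxon-Mann-Whitney statistic from -0.5 to +0.5, computed with the Universal PBM Analysis Suite. Scale: above 0.35 generally sequence-specific binding.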

| Sequence | PBM E-score |
| --- | --- |
| CTTCGGAC | 0.283 |
| TGATACCA | 0.0811 |
| CTGGGATC | 0.0126 |
| GCCCGGAA | 0.459 |
| CAGAATAG | -0.0833 |
| ACGTCCTG | -0.164 |
| CATTATAC | 0.0592 |
| CTCATTCA | -0.0959 |
| GCGTTGGA | -0.0194 |
| ATGAGCCC | -0.171 |
| CCAGCCTC | -0.253 |
| CTTAAGAA | -0.0351 |
| AAACGGAC | 0.189 |
| GAGCCTGC | 0.0746 |
| TAAAGCCA | -0.223 |
| CCAAGTCC | -0.065 |
| TCATGTCA | -0.122 |
| AAGGCGCC | 0.12 |
| CCAGTGAG | -0.184 |
| CCTGTCCA | -0.259 |
| AATCGTCC | 0.187 |
| CTAACATC | 0.0252 |

| Sequence | PBM E-score |
| --- | --- |
| ACAAGGCT | -0.315 |
| CCACCGCG | 0.302 |
| TACGTCGA | -0.124 |
| TACTCCGA | 0.296 |
| GGGGTTTA | -0.12 |
| ACCCTACT | -0.148 |
| AAGGGGCA | -0.119 |
| ATTATGGA | 0.00094 |
| AAATGGGT | 0.111 |
| CTGATCTC | 0.042 |
| CAAATCTC | 0.0357 |
| GCACAACC | -0.00027 |
| CAGTTGCC | -0.0572 |
| CAAGCTGA | 0.0752 |
| CTTCCTTA | -0.13 |
| CCCTGTGC | -0.139 |
| GATGTTGA | -0.143 |
| AGACAGGA | -0.00086 |
| CCGGGGGA | 0.311 |
| GAGGCATC | -0.163 |
| ATCGCTGC | 0.113 |
| ATGCAATG | -0.159 |

| Sequence | PBM E-score |
| --- | --- |
| GAAACGCC | 0.187 |
| AGTTTCGG | 0.225 |
| TGCAGCAA | -0.104 |
| AGTATAAG | 0.052 |
| CGACAGTC | -0.24 |
| CGAGAGTA | 0.197 |
| AGCAGCTG | -0.0576 |
| AAACCGTT | -0.0215 |
| GTAGGCGA | -0.0578 |
| GTAGCCAA | -0.161 |
| CCAGAGAG | -0.216 |
| CGCTGGCC | -0.0818 |
| AGGATGGC | 0.0452 |
| ACACTCCG | 0.204 |
| CAGAGTGA | -0.0887 |
| AACTCGAT | 0.0479 |
| CTCATTGA | -0.188 |
| AAGACCAC | -0.332 |
| CAGTGTGC | -0.225 |
| ATAAGATA | 0.0912 |
| ACAACTCA | -0.00409 |
| CCAGACGG | 0.0376 |

| Sequence | PBM E-score |
| --- | --- |
| CGATGCCC | -0.13 |
| ATTGGAGA | -0.0772 |
| CGGTGCGA | -0.0161 |
| AATTGGAA | 0.0211 |
| AATCACCG | 0.0766 |
| AATAGGAA | -0.111 |
| TGCCGAAA | 0.118 |
| CCGCTATA | 0.155 |
| AATTCGAT | 0.0319 |
| GTACTCAA | 0.0452 |
| ACGTGGGA | -0.234 |
| AGGCTATC | -0.0213 |
| AGAGGTTA | -0.0967 |
| GGGGGTAA | -0.255 |
| AAGTTAGT | -0.0202 |
| ACAGGGTA | -0.12 |
| GGGGGGGA | -0.311 |
| AAGTAACG | 0.0311 |
| GATGAGGA | -0.182 |
| GGATTGAA | 0.105 |
